Results from patent publication US6949366 (Amgen, dated 2005).

Legend:
[1] = target: T1, human hek ligand encoded by clone C6 (human, UniProt P52798 23-170, GPI anchor at the C-terminus after cleavage (likely on Ser 148 in the filing's numbering; site not determined)); experiment: indirect Scatchard binding: hek/Fc titrated on CV1-EBNA-1 cells expressing hek-L C6, detected with 125I mouse anti-human IgG
T1 construct: Expressed from the full-length clone C6 cDNA in pDC410 on CV1-EBNA-1 cells and held on the membrane by a GPI anchor; also called hek-L C6; hek ligand C6
T1 sequence: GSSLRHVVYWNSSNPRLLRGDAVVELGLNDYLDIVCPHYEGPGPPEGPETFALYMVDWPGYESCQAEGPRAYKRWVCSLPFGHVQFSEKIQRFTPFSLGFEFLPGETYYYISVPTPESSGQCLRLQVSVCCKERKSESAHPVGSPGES

human elk ligand [2] = target: T2, human elk ligand (human, UniProt P98172 28-346); experiment: indirect Scatchard binding: hek/Fc titrated on CV1-EBNA-1 cells expressing elk-L, detected with 125I mouse anti-human IgG; biphasic, first component
T2 construct: whole, on cells
T2 sequence (looked up): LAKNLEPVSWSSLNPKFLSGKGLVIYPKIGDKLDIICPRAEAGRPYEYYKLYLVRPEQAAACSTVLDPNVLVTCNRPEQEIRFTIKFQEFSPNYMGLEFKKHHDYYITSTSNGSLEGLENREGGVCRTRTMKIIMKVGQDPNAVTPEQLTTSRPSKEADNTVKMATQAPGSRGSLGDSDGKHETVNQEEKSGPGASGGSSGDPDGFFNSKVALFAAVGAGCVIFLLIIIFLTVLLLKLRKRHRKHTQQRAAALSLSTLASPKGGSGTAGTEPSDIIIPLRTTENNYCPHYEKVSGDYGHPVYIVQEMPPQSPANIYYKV

[3] = target: T3, human hek ligand encoded by clone A2 (human, UniProt P52797 20-213, GPI anchor at the C-terminus after cleavage (likely on Ser 194 in the filing's numbering; site not determined)); experiment: indirect Scatchard binding: hek/Fc titrated on CV1-EBNA-1 cells expressing hek-L A2, detected with 125I mouse anti-human IgG
T3 construct: Expressed from the full-length clone A2 cDNA in pDC410 on CV1-EBNA-1 cells and held on the membrane by a GPI anchor; also called hek-L A2; hek ligand A2
T3 sequence: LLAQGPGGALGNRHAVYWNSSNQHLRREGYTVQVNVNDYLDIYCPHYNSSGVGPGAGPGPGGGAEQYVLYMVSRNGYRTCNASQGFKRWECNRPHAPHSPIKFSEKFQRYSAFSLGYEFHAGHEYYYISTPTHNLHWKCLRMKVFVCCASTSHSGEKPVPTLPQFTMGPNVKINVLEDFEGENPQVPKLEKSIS

human elk ligand [4] = target: T2, human elk ligand; experiment: indirect Scatchard binding: hek/Fc titrated on CV1-EBNA-1 cells expressing elk-L, detected with 125I mouse anti-human IgG; biphasic, second component
human B61 = target: T4, human B61 (human, UniProt P20827 19-182); experiment: indirect Scatchard binding: hek/Fc titrated on CV1-EBNA-1 cells expressing B61, detected with 125I mouse anti-human IgG
T4 construct: whole, on cells
T4 sequence (looked up): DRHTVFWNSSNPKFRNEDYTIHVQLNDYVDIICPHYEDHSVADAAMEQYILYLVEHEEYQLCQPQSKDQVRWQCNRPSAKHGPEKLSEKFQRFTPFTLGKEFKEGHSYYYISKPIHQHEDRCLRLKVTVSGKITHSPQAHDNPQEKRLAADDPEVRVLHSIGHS

B1: soluble human hek/Fc fusion protein (Fc fusion)
chain: ELIPQPSNEVNLLDSKTIQGELGWISYPSHGWEEISGVDEHYTPIRTYQVCNVMDHSQNNWLRTNWVPRNSAQKIYVELKFTLRDCNSIPLVLGTCKETFNLYYMESDDDHGVKFREHQFTKIDTIAADESFTQMDLGDRILKLNTEIREVGPVNKKGFYLAFQDVGACVALVSVRVYFKKCPFTVKNLAMFPDTVPMDSQSLVEVRGSCVNNSKEEDPPRMYCSTEGEWLVPIGKCSCNAGYEERGFMCQACRPGFYKALDGNMKCAKCPPHSSTQEDGSMNCRCENNYFRADKDPPSMACTRPPSSPRNVISNINETSVILDWSWPLDTGGRKDVTFNIICKKCGWNIKQCEPCSPNVRFLPRQFGLTNTTVTVTDLLAHTNYTFEIDAVNGVSELSSPPRQFAAVSITTNQAAPSPVLTIKKDRTSRNSISLSWQEPEHPNGIILDYEVKYYEKQEQETSYTILRARGTNVTISSLKPDTIYVFQIRARTAAGYGTNSRKFEFETSPDSFSISGESSQ[human IgG1 Fc not listed]
Ka [1]: 2e+08 M⁻¹
Ka (human elk ligand [2]): 2.3e+07 M⁻¹
Ka [3]: 2e+08 M⁻¹
Ka (human elk ligand [4]): 2.9e+06 M⁻¹
Ka (human B61): 5.5e+07 M⁻¹
